Structures are written as SMILES. Whole data set: some 3,600 compounds, median “viability index relative to DMSO control” near 0.81, cut for the lowest 2% near 0.13. The list shows a part of the results.
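Further: 384-well serum-free SaLSSA: MitoTracker Red CMXRos staining with saponin lysis, high-content imaging, treated-well particle count divided by plate-mean count of DMSO wells.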

The subject of the experiment is Plasmodium falciparum NF54 stage V gametocytes. The experiment in a line: viability index relative to DMSO control (fraction); higher = less gametocyte killing. As to conditions: 1.25 µM, incubation time: 72 h.
In the case of `Nc1c(C(=O)NCc2ccccc2)nnn1Cc1ccc(F)cc1Cl`, the viability index is 0.819. As for `C=CCn1nc(C(=O)N2CCCC2)c2c1CCC(N1CCCCCC1)C2` (stereo not given), the figure is 0.942; as for `CC(=O)c1ccc(-n2cc(C(=O)C(C)Oc3ccc(Cl)cc3Cl)nn2)cc1` (stereo not given), 1.2; as for `O=C(NCc1ccccc1C(F)(F)F)C1CC(O)CN1C(=O)Nc1ccccc1` (stereo not given), 0.964. As for `CCN(CC)CCN(Cc1cc2cc(OC)ccc2[nH]c1=O)C(=S)Nc1ccc(F)cc1`, the figure is 0.674.

The molecule `CC(=O)N1c2ccccc2CC1C(=O)NCc1cccc(Cl)c1` (stereo not given) came in with a viability index of 1.02. As to `COc1ccccc1C1CC(=O)N2CN(Cc3ccccc3)CSC2=C1C#N` (stereo not given), the viability index stood at 0.815. As for `COc1ccccc1C(c1nnnn1Cc1ccc(F)cc1)N1CCN(C)CC1` (stereo not given), the viability index was 1.01. As for `O=C(Cc1ccsc1)N1CCOc2c(cc(-c3csc4ccccc34)cc2OCCc2ccccn2)C1`, the figure is 0.394; as for `Cc1ccc(Cl)cc1N1CCN(S(=O)(=O)c2ccc3c(c2)oc(=O)n3C)CC1`, 1.07; as for `COC(=O)c1sc2nc(CN3CCC(C)CC3)ccc2c1NC(=O)c1ccc(C)s1`, 0.981. In the case of `O=C(CCl)NCCNc1ncc(C(F)(F)F)cc1Cl` it was 0.564. As for `COc1ccc(-c2c[n+](Cc3ccccc3Cl)c3n2CCC3)cc1`, the figure is 0.857; as for `CCN1C(=O)N(CC)C(NNC(N)=S)C1NNC(N)=S` (stereo not given), 0.173. Consider `CN(C)c1ccc(-c2n(C)c3ccccc3[n+]2C)cc1`, for which the viability index worked out at 1.05. Regarding `CC(C)CN1C(=O)c2ccccc2C(C(=O)Nc2ccccn2)C1c1cccs1` (stereo not given), the viability index came out at 0.534. As for `CC[N+]1(CCOc2ccc(C34CC5CC(CC(C5)C3)C4)cc2)CCCCC1`, the figure is 0.601. In the case of `O=[N+]([O-])c1ccc(NCCNc2nc(N3CCCC3)nc3ccccc23)cc1` it was 0.776; in that of `COc1ccc(NC(=O)C2c3ccccc3C(=O)N(CC(C)C)C2c2cccs2)cc1Cl` (stereo not given), 0.104; in that of `O=C(C=Cc1ccccc1Cl)Nc1ccc(Oc2ccc3ccccc3c2Cl)c(Cl)c1`, 0.763.

`Cc1nc(-c2ccccc2)nc(C(=O)N2CCN(C(=O)NC3CCCCC3)C(C)C2)c1C(=O)OC(C)C` (stereo not given) showed a viability index of 0.488.

The molecule `COc1ccc(C(=O)NC(c2ccc(C)cc2)c2cc(Cl)c3cccnc3c2O)cc1` (stereo not given) showed a viability index of 0.726. In the case of `CCCNC(=O)N1CCC2(CC1)CC(=O)c1cc(C)ccc1O2` it was 0.929; in that of `CC(=O)CSc1nnc(-c2ccncc2)n1C`, 0.717; in that of `Cc1ccc(NC(C)C(=O)Nc2ccc(C#N)cc2)cc1S(=O)(=O)N1CCCCC1` (stereo not given), 1.21.

Source of the values: the supplement of paper PMC4723716.
